Data from PubChem BioAssay AID624296 (National Center for Advancing Translational Sciences (NCATS), 2012).
About 9,900 (2.8%) of roughly 350,000 compounds were called active. Inconclusive means that the source gave no clear call. Such entries were picked first, then a sample of the others. Calls come from the whole dose curve; as a rule, active = well fitted activation curve with a large enough effect; inconclusive = small, poorly fitted or top-dose-only effect; inactive = no such curve, though single readings can be large or run the other way. No potency is given beside an inconclusive call; the fits are too rough.

Test: A quantitative high throughput screen for small molecules that induce DNA re-replication in MCF 10a normal breast cells. For activity, positive = re-replication: % of control where 0% means no effect. Note: nearly all actives have a fitted effect of over 50% in size.
Conditions: MCF 10A DNA re-replication, Hoechst nuclear intensity, 48 h; activity, positive = re-replication: at 46.1 µM (top of the series)
Potency is the fitted concentration of half-maximal effect; tags give direction and shape of the fitted curve.

| Compound | activity, positive = re-replication | Potency |
| --- | --- | --- |
| CC1CN(C(=S)Nc2cccc([N+](=O)[O-])c2)CC(C)O1 (centres undefined) | inconclusive: -44.1% [activator] | – |
| Cc1c(-c2n[nH]c(=S)n2-c2ccc(Br)cc2)nnn1-c1ccc(Cl)cc1 | – | inconclusive [activator, single point] |
| O=C(C[n+]1ccc(/C=N/O)cc1)NC(=O)Nc1ccccc1 | – | inconclusive [activator, partial curve] |
| O=C(Cc1cnn(-c2ccccc2)c1)c1ccc(O)c(O)c1O | inactive: -5.42% | – |
| CNC1C(OC2C(O[C@@H]3C(O)C(O)[C@@H](N=C(N)N)C(O)C3N=C(N)N)OC(C)[C@@]2(O)CO)OC(CO)C(O)C1O (some centres undefined) | inactive: -1.76% | – |
| CCOc1ccc(Oc2cc(NC(=O)c3ccco3)cc([N+](=O)[O-])c2)cc1 | – | inconclusive [activator, partial curve, poor fit] |
| CC1CCN(c2nc(-c3ccccc3O)nc3ccccc23)CC1 | – | inconclusive [activator, partial curve, poor fit] |
| Cc1nc2ccc([N+](=O)[O-])cc2c(=O)n1Cc1ccccc1Br | inactive: 21% | – |
| CCOc1ccccc1C1N=C(c2ccc(OC)cc2)CC(c2ccccc2O)N1 (centres undefined) | – | inconclusive [activator, single point] |
| Cc1ccc(S(=O)(=O)N(C)Cc2ccc(C(=O)N/N=C3\CC(=O)CC(C)(C)C3)cc2)cc1 | – | inconclusive [activator, partial curve, poor fit] |
| COc1cc2c(cc1OC)C(c1ccc3c(c1)OCO3)C1=C(CC(C)(C)CC1=O)N2 (centres undefined) | – | inconclusive [activator, partial curve, poor fit] |
| O=c1oc2c3c4c(cc2c(C(F)(F)F)c1CCN1CCOCC1)CCCN4CCC3 | inactive: 14% | – |
| CCN(CC)S(=O)(=O)c1cccc(C(=O)OCC(=O)c2ccc3c(c2)OCCO3)c1 | inactive: 2.5% | – |
| COC(=O)c1ccc(C2C(C(=O)c3cc4ccccc4o3)=C(O)C(=O)N2c2cc(C)on2)cc1 (centres undefined) | – | active: 23.1 µM |
| Cc1cccc(NC(=O)COC(=O)c2cc3ccccc3oc2=O)c1 | – | active: 0.651 µM |
| COc1ccccc1C1C(C(=O)c2ccc(C)o2)=C(O)C(=O)N1c1cc(C)on1 (centres undefined) | – | inconclusive [activator, single point] |
| CCOC(=O)c1ccc(N=c2sc(C(=O)OC)cc(=O)n2-c2ccc(C(=O)OCC)cc2)cc1 | – | inconclusive [activator, single point] |
| Cc1ccc(/C=N/NC(=O)c2cc(C)oc2C)cc1 | – | inconclusive [activator, partial curve] |
| CC1CCCN(CCOc2ccc(Br)cc2)C1 (centres undefined) | – | inconclusive [activator, partial curve] |
| CN(C)CCCNc1cc(C(C)(C)C)nc2c(-c3ccccc3)cnn12 | – | inconclusive [activator, partial curve, poor fit] |
| CCCCCCCCNC(=O)/C(C#N)=C/c1ccc2c(c1)OCCO2 | – | inconclusive [activator, single point] |
| CC(C)OC(=O)C(C(=O)OC(C)C)=C1SC=CS1 | inactive: -1.83% | – |
| CCCCCCCNC(=O)c1cc(-c2ccncc2)nc2ccccc12 | – | inconclusive [activator, single point] |
| COCCOC(=O)c1c(C)oc2ccc(NS(=O)(=O)c3ccccc3)cc12 | inactive: -3.35% | – |
| Cc1ccc(OCc2cc(C(=O)N(C)CCc3ccccn3)no2)cn1 | inactive: -1.73% | – |

| Compound | activity, positive = re-replication | Potency |
| --- | --- | --- |
| N#Cc1c(N2CCCCC2)nc(N2CCCCC2)c2c1CCN(Cc1ccccc1)C2 | – | inconclusive [activator, partial curve, poor fit] |
| COc1ccc2o/c(=N\O)c(C(=O)Nc3ccccc3OC)cc2c1 | inactive: -2.86% | – |
| COc1ccc(C(=O)/C=C/c2cn(CC(O)CN3CCOCC3)c3ccccc23)cc1 (centres undefined) | – | active: 14.6 µM |
| CNc1ncnc2c1ncn2[C@@H]1O[C@H](CO)[C@@H](O)[C@H]1O | inactive: 19.8% | – |
| CCCCCc1cc(OC)cc2c1C(=O)OC(C)(C)O2 | inactive: -1.4% | – |
| Cc1ccc(C(NC(=O)N2CCOCC2)=C(Cl)Cl)cc1F | – | inconclusive [activator, single point] |
| CC1(CCC(=O)N2CCCC(Nc3ccc(F)cc3)C2)CC1 (centres undefined) | inactive: 4.37% | – |
| O=C(c1ccc(F)cc1F)N1CCCc2ccccc21 | – | inconclusive [activator, full curve, poor fit] |
| COc1cccc(N2CCN(S(=O)(=O)c3cc4c(cc3C)N(C)CCO4)CC2)c1 | inactive: 13% | – |
| Cc1[nH]n(C(N)=S)c(=O)c1N=Nc1cccc(Cl)c1 | – | inconclusive [activator, partial curve, poor fit] |
| COc1ccc(C(=O)NC2CCCc3c2cnn3-c2cc(F)cc(F)c2)c(OC)n1 (centres undefined) | – | inconclusive [activator, partial curve, poor fit] |
| CC(C)N1C(=O)S/C(=C/c2ccccc2OCc2ccc(C(=O)O)cc2)C1=O | – | inconclusive [activator, single point] |
| O=C(c1ccc2ncsc2c1)N1CCN(c2cccc(C(F)(F)F)c2)CC1 | – | active: 13 µM |
| COc1ccccc1N1CCN(C(=O)c2cc(=O)c3cc(C)ccc3o2)CC1 | – | inconclusive [activator, single point] |
| COc1ccc(NC(=S)N(Cc2ccc(C(=O)O)cc2)Cc2ccc(OC)c(OC)c2)cc1 | inactive: 1.63% | – |
| O=C(CCCc1c[nH]c2ccccc12)Nc1ccc2ccccc2c1 | – | inconclusive [activator, partial curve, poor fit] |
| Nc1ccc(C23CC4CC(CC(CO)(C4)C2)C3)cc1 | inactive: 3.33% | – |
| NC(=O)c1sc2nccc(Nc3ccccc3)c2c1N | – | inconclusive [activator, partial curve, poor fit] |
| CCNC(=S)N/N=C/c1ccc(-c2ccccc2)o1 | – | inconclusive [activator, partial curve] |
| CCN1/C(=C/C=C/c2oc3ccc4ccccc4c3[n+]2CC)Oc2ccc3ccccc3c21 | – | inconclusive [activator, full curve, poor fit] |
| CC[C@H](CO)Oc1cc(NCc2ccc(Cl)c(Cl)c2)c2ncn(C(C)C)c2c1 | – | active: 20.6 µM |
| Cc1nc(N2CCOCC2)nc(N2CCCCC2C)c1[N+](=O)[O-] (centres undefined) | inactive: -3.15% | – |
| CCOC(=O)c1[nH]c(C)c(/C(O)=C2\C(=O)C(=O)N(CCN3CCOCC3)C2c2cccs2)c1C (centres undefined) | – | inconclusive [activator, single point] |
| Cc1oc(=O)c(NC(=O)c2ccccc2)cc1C(N)=O | inactive: -4.06% | – |
| Cc1ccc(NC(=O)CN(C)C(=O)Cn2ncc(Cl)c(Cl)c2=O)cc1 | – | active: 3.26 µM |

| Compound | activity, positive = re-replication | Potency |
| --- | --- | --- |
| COc1cc(/C=N\NC(=O)c2cccc(Cl)c2)ccc1Oc1ccc([N+](=O)[O-])cn1 | – | inconclusive [activator, single point] |
| C#CCOc1ccccc1/C=C1/C(=O)ON=C1C | – | inconclusive [activator, single point] |
| CC(=O)c1ccc(Nc2c3c(nc4ccccc24)CCCC3)cc1 | – | active: 14.6 µM |
| COc1ccc(/C=N/N(Cc2ccccc2)c2ccccc2)cc1O | – | inconclusive [activator, single point] |
| Cc1nn(-c2cccc(C(F)(F)F)c2)c(Cl)c1/C=N/Nc1cccc(C(=O)O)c1 | inactive: 1.47% | – |
| COCCn1c(C)cc(C(=O)COC(=O)c2ccc3ncsc3c2)c1C | – | inconclusive [activator, partial curve, poor fit] |
| NC(=O)c1c(NC(=O)Cn2nc(C(=O)O)c3ccccc3c2=O)sc2c1CCCC2 | – | inconclusive [activator, single point] |
| CC(NC(=O)c1ccnn1C)C1CCCO1 (centres undefined) | – | inconclusive [activator, partial curve, poor fit] |
| Cc1ccccc1CSCc1nc(N)nc(Nc2ccccc2C)n1 | inactive: 6.29% | – |
| CC1NC(=O)NC1CCCCC(=O)O (centres undefined) | inactive: 9.17% | – |
| S=c1[nH]nc(COc2ccc3c(c2)OCO3)n1-c1ccccc1 | inactive: 0.738% | – |
| COC(=O)c1sc(C(F)(F)F)c(-c2ccccc2)c1S(=O)(=O)N1CCOCC1 | inactive: 0.682% | – |
| Cc1c(CN2CCN(c3cccc(C(F)(F)F)c3)CC2)c(=O)n(-c2ccccc2)n1C | inactive: -6.65% | – |
| O=C(NN=C1CCCC1)c1n[nH]c2c1CCC2 | – | inconclusive [activator, single point] |
| COc1cc(NC(=S)Nc2ncccc2C)cc(OC)c1OC | – | inconclusive [activator, single point] |
| COC(=O)Nc1ccc(SCC(=O)c2ccc(Cl)cc2)cc1 | inactive: 3.37% | – |
| CCCCN(C)Cc1c(C)[nH]c2c(ccc3ccccc32)c1=O | – | inconclusive [activator, single point] |
| NNC(=O)C12CC3CC(C1)CC(n1ncnn1)(C3)C2 | inactive: -2.22% | – |
| O=S(=O)(Cc1ccccc1)NC1c2ccccc2Oc2ccccc21 | – | inconclusive [activator, single point] |
| O=C(CSc1nccn1-c1ncc(C(F)(F)F)cc1Cl)c1ccc(Cl)cc1 | inactive: 7.36% | – |
| CC(=O)NC(=S)Nc1ccc(NC(=O)c2cccs2)cc1 | inactive: 3.71% | – |
| O=C(NC(=S)N1CCc2ccccc21)c1ccccc1Br | inactive: 11.7% | – |
| CCOC(=O)Nc1ccc2nc(Sc3ccc(Cl)cc3)sc2c1 | – | inconclusive [activator, partial curve, poor fit] |
| CCN(CC)S(=O)(=O)c1cc(C(=O)Nc2cc(C)on2)c(Cl)cc1Cl | – | inconclusive [activator, partial curve, poor fit] |
